# The other results are listed elsewhere or left out.
# B1: Gal 3 (Homo sapiens), P17931 (protein)
# chain: MADNFSLHDALSGSGNPNPQGWPGAWGNQPAGAGGYPGASYPGAYPGQAPPGAYPGQAPPGAYHGAPGAYPGAPAPGVYPGPPSGPGAYPSSGQPSAPGAYPATGPYGAPAGPLIVPYNLPLPGGVVPRMLITILGTVKPNANILDFQRGNDVAFHFNPRFNENNRRVIVCNTKLDNNWGREEIQSVFPFESGKPFKIQVLVEPDHFKVAVNDAHLLQYNHRVKKLNEISKLGISGDIDLTSASYTMI
# Legend:
# Experiment in all cases: glycan array binding signal (z-score within array); higher = stronger binding
# Settings in all cases: glycan notation: IUPAC condensed, linker removed; mutation: R186I
# [1] = molecular target: GalNAc(b1-3)Gal(a1-4)Gal(b1-4)GlcNAc
# Method in brief: (§1)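 Glycan array binding is given as a within-array Z-score, which can be read as non-binding when negative. The arrays, 3228 of them, came from the Consortium for Functional Glycomics database and were retained only where the protein sequence was available. Z-scores were averaged across arrays of the same protein sequence at different concentrations or buffers and across linkers.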
# [2] = molecular target: GalNAc(b1-3)Gal(a1-4)Gal(b1-4)GlcNAc(b1-3)Gal(b1-4)Glc
# Method in brief: as §1
# [3] = molecular target: GalNAc(b1-3)Gal(a1-6)Gal(b1-4)Glc
# Method in brief: as §1
# [4] = molecular target: GalNAc(b1-3)GalNAc
# Method in brief: as §1
# [5] = molecular target: GalNAc(b1-4)GlcNAc
# Method in brief: as §1
# [6] = molecular target: GalNAc(b1-4)GlcNAc(b1-2)Man(a1-3)[GalNAc(b1-4)GlcNAc(b1-2)Man(a1-6)]Man(b1-4)GlcNAc(b1-4)GlcNAc
# Method in brief: as §1
# [7] = molecular target: Glc(a1-4)Glc
# Method in brief: as §1
# [8] = molecular target: Glc(a1-6)Glc(a1-6)Glc
# Method in brief: as §1
# [9] = molecular target: Glc(b1-4)Glc
# Method in brief: as §1
# [10] = molecular target: Glc(b1-6)Glc
# Method in brief: as §1
# [11] = molecular target: GlcA(b1-3)Gal
# Method in brief: as §1
# [12] = molecular target: GlcA(b1-3)GlcNAc
# Method in brief: as §1
# [13] = molecular target: GlcA(b1-6)Gal
# Method in brief: as §1
# [14] = molecular target: GlcNAc(a1-3)Gal(b1-4)GlcNAc
# Method in brief: as §1
# [15] = molecular target: GlcNAc(a1-4)Gal(b1-3)GlcNAc
# Method in brief: as §1
# [16] = molecular target: GlcNAc(a1-4)Gal(b1-4)GalNAc
# Method in brief: as §1
# [17] = molecular target: GlcNAc(a1-4)Gal(b1-4)GlcNAc
# Method in brief: as §1
# [18] = molecular target: GlcNAc(a1-4)Gal(b1-4)GlcNAc(b1-3)Gal(b1-4)Glc
# Method in brief: as §1
# [19] = molecular target: GlcNAc(a1-4)Gal(b1-4)GlcNAc(b1-3)Gal(b1-4)GlcNAc
# Method in brief: as §1
# [20] = molecular target: GlcNAc(a1-4)Gal(b1-4)GlcNAc(b1-3)Gal(b1-4)GlcNAc(b1-3)Gal(b1-4)GlcNAc
# Method in brief: as §1
# [21] = molecular target: GlcNAc(a1-4)Gal(b1-4)GlcNAc(b1-3)Gal(b1-4)[Fuc(a1-3)]GlcNAc(b1-3)Gal(b1-4)[Fuc(a1-3)]GlcNAc
# Method in brief: as §1
# [22] = molecular target: GlcNAc(a1-6)Gal(b1-4)GlcNAc
# Method in brief: as §1
# [23] = molecular target: GlcNAc(b1-2)Gal(b1-3)GalNAc
# Method in brief: as §1
# [24] = molecular target: GlcNAc(b1-2)Man(a1-3)[GlcNAc(b1-2)Man(a1-6)]Man(b1-4)GlcNAc(b1-4)GlcNAc
# Method in brief: as §1
# [25] = molecular target: GlcNAc(b1-2)Man(a1-3)[GlcNAc(b1-2)Man(a1-6)]Man(b1-4)GlcNAc(b1-4)[Fuc(a1-6)]GlcNAc
# Method in brief: as §1
# [26] = molecular target: GlcNAc(b1-2)[GlcNAc(b1-4)]Man(a1-3)[GlcNAc(b1-2)Man(a1-6)]Man(b1-4)GlcNAc(b1-4)GlcNAc
# Method in brief: as §1
# [27] = molecular target: GlcNAc(b1-3)Gal
# Method in brief: as §1
# [28] = molecular target: GlcNAc(b1-3)Gal(b1-3)GalNAc
# Method in brief: as §1
# [29] = molecular target: GlcNAc(b1-3)Gal(b1-4)Glc
# Method in brief: as §1
# [30] = molecular target: GlcNAc(b1-3)Gal(b1-4)GlcNAc
# Method in brief: as §1
# [31] = molecular target: GlcNAc(b1-3)Gal(b1-4)GlcNAc(b1-3)Gal(b1-4)GlcNAc
# Method in brief: as §1
# [32] = molecular target: GlcNAc(b1-3)GalNAc
# Method in brief: as §1
# [33] = molecular target: GlcNAc(b1-3)Man
# Method in brief: as §1
# [34] = molecular target: GlcNAc(b1-3)[GlcNAc(b1-4)][GlcNAc(b1-6)]GlcNAc
# Method in brief: as §1
# [35] = molecular target: GlcNAc(b1-3)[GlcNAc(b1-6)]Gal(b1-4)GlcNAc
# Method in brief: as §1
# [36] = molecular target: GlcNAc(b1-3)[GlcNAc(b1-6)]GalNAc
# Method in brief: as §1
# [37] = molecular target: GlcNAc(b1-4)Gal(b1-4)GlcNAc
# Method in brief: as §1
binder,measurement,setting,value
B1,glycan array binding signal (z-score),[1],-0.177
same,glycan array binding signal (z-score),[2],2.69
same,glycan array binding signal (z-score),[3],-0.182
same,glycan array binding signal (z-score),[4],-0.186
same,glycan array binding signal (z-score),[5],-0.187
same,glycan array binding signal (z-score),[6],-0.114
same,glycan array binding signal (z-score),[7],-0.196
same,glycan array binding signal (z-score),[8],-0.021
same,glycan array binding signal (z-score),[9],-0.191
same,glycan array binding signal (z-score),[10],0.004
same,glycan array binding signal (z-score),[11],-0.11
same,glycan array binding signal (z-score),[12],-0.188
same,glycan array binding signal (z-score),[13],-0.193
same,glycan array binding signal (z-score),[14],-0.16
same,glycan array binding signal (z-score),[15],-0.145
same,glycan array binding signal (z-score),[16],-0.172
same,glycan array binding signal (z-score),[17],-0.187
same,glycan array binding signal (z-score),[18],-0.163
same,glycan array binding signal (z-score),[19],-0.181
same,glycan array binding signal (z-score),[20],0.461
same,glycan array binding signal (z-score),[21],-0.048
same,glycan array binding signal (z-score),[22],-0.156
same,glycan array binding signal (z-score),[23],-0.091
same,glycan array binding signal (z-score),[24],-0.185
same,glycan array binding signal (z-score),[25],-0.178
same,glycan array binding signal (z-score),[26],-0.096
same,glycan array binding signal (z-score),[27],-0.191
same,glycan array binding signal (z-score),[28],-0.185
same,glycan array binding signal (z-score),[29],-0.183
same,glycan array binding signal (z-score),[30],-0.193
same,glycan array binding signal (z-score),[31],-0.193
same,glycan array binding signal (z-score),[32],-0.179
same,glycan array binding signal (z-score),[33],-0.189
same,glycan array binding signal (z-score),[34],-0.187
same,glycan array binding signal (z-score),[35],-0.177
same,glycan array binding signal (z-score),[36],-0.129
same,glycan array binding signal (z-score),[37],-0.131

# Reference: the supplement of paper PMC8728848
